This is one part of the list. The energies were worked out here from pooled read counts, against the library average; single values are noisy.
molecular target: T1, Pho4 (S. cerevisiae) (UniProt P07270); assay: relative binding free energy (BET-seq); higher = weaker binding; conditions: reference: library average
T1 sequence: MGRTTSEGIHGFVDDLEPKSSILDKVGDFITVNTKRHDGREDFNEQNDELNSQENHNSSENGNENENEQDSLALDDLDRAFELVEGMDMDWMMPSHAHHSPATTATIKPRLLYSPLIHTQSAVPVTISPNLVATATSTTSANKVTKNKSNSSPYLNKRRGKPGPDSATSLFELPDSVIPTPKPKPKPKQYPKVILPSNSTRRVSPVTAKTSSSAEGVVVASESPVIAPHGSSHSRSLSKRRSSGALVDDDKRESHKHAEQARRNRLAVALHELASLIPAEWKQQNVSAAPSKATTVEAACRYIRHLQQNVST

Row | Sequence | relative binding free energy [kcal/mol]
1 | TCTTTCACGTGTGTCA | 0.24
2 | AATGTCACGTGGCGCG | 0.01
3 | AGAATCACGTGGTAGG | 0.15
4 | ATAAACACGTGTTGAT | 0.04
5 | GGCATCACGTGGTAGG | 0.08
6 | GAAGTCACGTGAGTGC | 0.39
7 | TTTGTCACGTGCGTAG | -0.09
8 | GTGGGCACGTGTGTTA | -0.06
9 | TGATACACGTGTCGGA | 0.11
10 | CTGGTCACGTGTTACG | 0.17
11 | TATTACACGTGCATTA | 0.13
12 | ATAGGCACGTGATGAT | -0.11
13 | GGGGTCACGTGAAGAG | 0.26
14 | TGAGGCACGTGAGCGA | 0.06
15 | AGTGGCACGTGCAAGT | -0.11
16 | TCGTACACGTGGGGGG | -0.15
17 | AGATCCACGTGTTGTG | 0.08
18 | TACGTCACGTGTGTGA | 0.05
19 | TGTCTCACGTGAGGAG | 0.23
20 | TTGTCCACGTGGTGAA | -0.03
21 | TAGTGCACGTGTTCAT | -0.04
22 | TGTATCACGTGCATGG | 0.14
23 | ATTCGCACGTGTTTGG | -0.07
24 | AGGGACACGTGTTAGC | 0.09
25 | GATAACACGTGCTGGG | 0.09

Row | Sequence | relative binding free energy [kcal/mol]
26 | GCAAGCACGTGGTGTT | -0.08
27 | GGGAGCACGTGTAGTG | -0.06
28 | TAGAGCACGTGGGGGT | -0.22
29 | CGTAGCACGTGAGAGG | 0.15
30 | ATGGACACGTGTTAAA | 0.03
31 | TTTGTCACGTGGGGTC | -0.06
32 | GGGTCCACGTGTGGCA | 0.23
33 | TGAAGCACGTGCTGGA | -0.05
34 | TTATTCACGTGATTTG | 0.42
35 | TTTACCACGTGGGTGG | -0.21
36 | GTAGACACGTGGGATG | 0.01
37 | GCAGTCACGTGTGGGC | 0.22
38 | TTAGACACGTGGGTGA | -0.09
39 | AATTACACGTGTGGGA | -0.02
40 | TTGATCACGTGAATTA | 0.29
41 | TAAAACACGTGTGTTG | -0.09
42 | AAGGTCACGTGCGATG | 0.16
43 | ATGATCACGTGGGGAA | 0.01
44 | GTGTGCACGTGTCATG | -0.08
45 | TTCAGCACGTGATGTT | -0.04
46 | GGTCTCACGTGGTTCT | 0.29
47 | GGATTCACGTGTGGTG | 0.33
48 | TGTTGCACGTGAATTG | 0.23
49 | AAGACCACGTGAGGGG | 0.18
50 | AAAGTCACGTGCATTG | 0.18

Row | Sequence | relative binding free energy [kcal/mol]
51 | TGCGGCACGTGTTCGG | -0.13
52 | ACATGCACGTGTATTG | -0.03
53 | TTAGACACGTGGCATG | -0.01
54 | TCTCTCACGTGGGGGT | 0.15
55 | GTTTGCACGTGGCTCT | -0.04
56 | TGGGTCACGTGATCAG | 0.24
57 | ATCTTCACGTGCTTGT | 0.21
58 | ATCTGCACGTGATTTG | 0.06
59 | CTGGGCACGTGATTGT | -0.1
60 | TTAGTCACGTGAAGGG | 0.37
61 | GGAATCACGTGTGGCA | 0.13
62 | GGATTCACGTGGTCAG | 0.22
63 | ATATGCACGTGTGGGG | -0.06
64 | TTAGGCACGTGGCATT | -0.27
65 | CGGGGCACGTGTGGCC | -0.07
66 | TTGGTCACGTGTAGGT | 0.2
67 | GGGAGCACGTGAAAGG | 0.18
68 | AGTCGCACGTGCGTGT | -0.06
69 | AAGCGCACGTGGGGGC | -0.15
70 | TTGTACACGTGGCTGG | -0.03
71 | CAGAGCACGTGGGGAG | -0.14
72 | TTATGCACGTGCGGGA | -0.04
73 | GGAATCACGTGTCAGT | 0.25
74 | GGTAACACGTGGCGTT | -0.1
75 | TCGGTCACGTGCTTTG | 0.18

Row | Sequence | relative binding free energy [kcal/mol]
76 | GTCGACACGTGAGTTG | 0.3
77 | TTAGGCACGTGGGAAC | -0.23
78 | ATAGACACGTGTGTAT | 0.14
79 | ATTGACACGTGACGTG | 0.05
80 | TTTTACACGTGTGATG | 0.11
81 | GATCGCACGTGGTTGT | -0.09
82 | TTTCACACGTGGAGAT | 0.12
83 | GTTTTCACGTGGTATA | 0.34
84 | TAGATCACGTGAGCGG | 0.35
85 | TAATACACGTGCGTGT | -0.02
86 | GGTATCACGTGTAGAT | 0.26
87 | GGTGGCACGTGCTGAT | -0.13
88 | GTTTACACGTGGGCGT | -0.02
89 | TTTGACACGTGTTTCA | 0.07
90 | GAGGACACGTGGTAAT | 0.08
91 | AGTGACACGTGAAGGG | 0.09
92 | TCCTTCACGTGGGAGT | 0.33
93 | GGGGCCACGTGTAGAG | 0.05
94 | GTTGGCACGTGTCGTG | -0.01
95 | CTAGTCACGTGGGGCA | 0.02
96 | TATTTCACGTGGGTCA | 0.17
97 | CTGTGCACGTGTCATG | -0.03
98 | AGGGACACGTGATGAT | 0.13
99 | TCGTGCACGTGTTCGG | 0.16
100 | AAGAGCACGTGGGATA | -0.07

Row | Sequence | relative binding free energy [kcal/mol]
101 | ATATACACGTGCATGT | 0.09
102 | GACTTCACGTGTGGTG | 0.3
103 | AATTCCACGTGGGTTG | -0.07
104 | TCGGTCACGTGAGTAT | 0.29
105 | AGGAACACGTGATGGA | 0.34
106 | GGATACACGTGAGAGT | 0.32
107 | TGTATCACGTGAATTA | 0.4
108 | GAGGTCACGTGTGTTC | 0.16
109 | GGTTGCACGTGGACAT | 0.01
110 | GTAGGCACGTGAAGGG | 0.14
111 | TTAATCACGTGGGAAT | -0.01
112 | GTTGGCACGTGACATT | 0.03
113 | TTGCTCACGTGACGGT | 0.33
114 | GCTGTCACGTGTATGG | 0.23
115 | ATAATCACGTGAGTTT | 0.37
116 | TTGGCCACGTGTGGAC | 0.02
117 | TAGGTCACGTGCGGCG | -0.13
118 | GAGAGCACGTGTGTCG | -0.05
119 | TTTCGCACGTGAAGTT | 0.23
120 | AGGGGCACGTGTCACG | -0.13
121 | CGATGCACGTGAGTTT | 0.23
122 | TTCTTCACGTGTTAGA | 0.06
123 | GATGACACGTGGGAAG | -0.04
124 | GTGGTCACGTGTTTAA | 0.07
125 | TGAGACACGTGGTTGC | -0.12

Row | Sequence | relative binding free energy [kcal/mol]
126 | TATTCCACGTGTCGGG | 0.18
127 | CTGTACACGTGGTGGG | 0.04
128 | CTAATCACGTGGTGTG | 0.05
129 | TGTAGCACGTGGGGTG | -0.21
130 | GGTATCACGTGTAGGG | 0.2
131 | TAGAGCACGTGCGCGT | -0.22
132 | AATGACACGTGTGATT | 0.08
133 | CGTCGCACGTGTGTGG | -0.07
134 | TCATGCACGTGGTTTA | -0.01
135 | TTGCTCACGTGTTAGT | 0.36
136 | TTTTACACGTGAGGTG | 0.32
137 | GTTAACACGTGGGACT | 0.09
138 | ATGGCCACGTGACTGG | 0.14
139 | GGTAGCACGTGGGGAA | -0.03
140 | CTGGTCACGTGGGCGC | 0.01
141 | GTATACACGTGGGTGA | -0.12
142 | GGTGTCACGTGTGCTA | 0.07
143 | AGTTTCACGTGTGTTA | 0.22
144 | GTGGGCACGTGTAATA | 0.13
145 | GGGGGCACGTGATAGG | 0.05
146 | TCATGCACGTGTTGTT | 0.06

Source: the BET-seq Pho4 binding data (Le et al. 2018)
